Test results published in PMC9911399, “Two distinct binding modes provide the RNA-binding protein RbFox with extraordinary sequence specificity”.
Changes are numbered by the printed parent chain; changes in the protein carry UniProt numbers. This is one part of the list.

T1: RBFOX1 RRM (Homo sapiens, UniProt Q9NWB1 109-208)
T1 sequence: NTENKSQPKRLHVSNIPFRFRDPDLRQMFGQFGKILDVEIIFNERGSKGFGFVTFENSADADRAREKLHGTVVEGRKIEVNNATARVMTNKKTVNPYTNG

B1: GACUCCG (DNA:RNA)
RNA: GGGAGACCGGAAUUCAGAUUGUCCGACUCCGUUAAAUCCCGUCGUAGCCACCA
DNA 1: CAATCTGAATTCCGGTCTCCC
DNA 2: TGGTGGCTACGACGGGATT
B2: GCUUUCA (DNA:RNA)
RNA: B1 RNA with A26C, C27U, C29U, G31A
DNA 1: CAATCTGAATTCCGGTCTCCC
DNA 2: TGGTGGCTACGACGGGATT
B3: GCAGCGG (DNA:RNA)
RNA: B1 RNA with A26C, C27A, U28G, C30G
DNA 1: CAATCTGAATTCCGGTCTCCC
DNA 2: TGGTGGCTACGACGGGATT
B4: GCUACUU (DNA:RNA)
RNA: B1 RNA with A26C, C27U, U28A, C30U, G31U
DNA 1: CAATCTGAATTCCGGTCTCCC
DNA 2: TGGTGGCTACGACGGGATT
B5: GCUCACG (DNA:RNA)
RNA: B1 RNA with A26C, C27U, U28C, C29A
DNA 1: CAATCTGAATTCCGGTCTCCC
DNA 2: TGGTGGCTACGACGGGATT
B6: AGAUAAC (DNA:RNA)
RNA: B1 RNA with G25A, A26G, C27A, C29A, C30A, G31C
DNA 1: CAATCTGAATTCCGGTCTCCC
DNA 2: TGGTGGCTACGACGGGATT
B7: GCUUACA (DNA:RNA)
RNA: B1 RNA with A26C, C27U, C29A, G31A
DNA 1: CAATCTGAATTCCGGTCTCCC
DNA 2: TGGTGGCTACGACGGGATT
B8: GCUACCG (DNA:RNA)
RNA: B1 RNA with A26C, C27U, U28A
DNA 1: CAATCTGAATTCCGGTCTCCC
DNA 2: TGGTGGCTACGACGGGATT
B9: CACAGAG (DNA:RNA)
RNA: B1 RNA with G25C, U28A, C29G, C30A
DNA 1: CAATCTGAATTCCGGTCTCCC
DNA 2: TGGTGGCTACGACGGGATT

Molecular target: T1, RBFOX1 RRM
Test: EMSA; HiTS-Eq, 1 nM pool, 10 min; buffer printed only for the single-RNA assays: 10 mM Tris pH 7.5, 150 mM NaCl, 3.4 mM EDTA, 0.001% NP-40, 30 C
Details: tags: His6 N-terminal (pET28a); label: 5' 32P
In short: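 Relative association constants, normalised to the cognate motif, were derived by comparing read counts of each RNA species with those of the control reaction. The RNA sequenced was the free fraction, separated by 8% native PAGE after a 10 min equilibration in 50 µL of 1 nM 5′-radiolabelled RNA (7 randomized nucleotides) with increasing concentrations of purified wild-type or mutant RbFox RRM.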

Row | Binder | binding signal
1 | B1 | 0.00654 KA relative to UGCAUGU
2 | B2 | 0.013 KA relative to UGCAUGU
3 | B3 | 0.0215 KA relative to UGCAUGU
4 | B4 | 0.0127 KA relative to UGCAUGU
5 | B5 | 0.00666 KA relative to UGCAUGU
6 | B6 | 0.00125 KA relative to UGCAUGU
7 | B7 | 0.00617 KA relative to UGCAUGU
8 | B8 | 0.0127 KA relative to UGCAUGU
9 | B9 | 0.0031 KA relative to UGCAUGU
